# Experimental data taken from PubChem BioAssay AID1347073 (National Center for Advancing Translational Sciences (NCATS), 2019).
# Among all 45,000 compounds or so, about 200 (0.44%) were called active. Another 7% or so got no clear call; they are omitted. Calls follow the shape of the dose curve; as a rule, active = well fitted activation curve with a large enough effect; inconclusive = small, poorly fitted or top-dose-only effect; inactive = no such curve, though single readings can be large or run the other way. The list shows a part of the results.
# Assay: qHTS of TDP-43 Inhibitors: NCGC Sytravon Library Screen; also: 0% is about no effect; nearly all actives have a fitted effect of over 55% in size
# Details: yeast TDP-43 toxicity rescue, BacTiter-Glo growth, 24 h; series mostly up to 46.1 µM; growth rescue (activation): at the top concentration
# Summary of the method: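 TDP-43-expressing yeast, pregrown in raffinose, seeded at OD600 0.02 in galactose medium with compound for 24 hr at 30 deg C. Growth read by BacTiter-Glo luminescence, so rescue of toxicity appears as activation.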
row,Compound,growth rescue (activation)
1,Cc1cc(Cl)ccc1C(=O)C1CCCN(C(=O)CCN2CCCO2)C1 (stereo not given),inactive: -1.94%
2,Cc1nnc(NC(=O)CSc2nnc3c(n2)[nH]c2ccccc23)s1,inactive: 4.27%
3,Cc1nn(CCCC(=O)NCc2cccc(Cl)c2)c(=O)c2c1sc1ccccc12,inactive: 19.1%
4,CCc1ccc2[nH]c(=O)c(CN(CCCN3CCOCC3)C(=O)Nc3cccc(Cl)c3)cc2c1,inactive: 2.13%
5,COc1ccc(CCNC(=O)CN2CCN(Cc3ccccc3F)C2=O)cc1OC,inactive: -6.59%
6,Cn1c(=O)c2c(nc(NCc3ccco3)n2C/C=C/c2ccccc2)n(C)c1=O,inactive: 11.8%
7,COC(=O)c1sccc1NC(=O)/C=C/c1ccc(Cl)cc1Cl,inactive: -12.2%
8,COc1cc(S(=O)(=O)NCc2ccncc2)c(OC)cc1C,inactive: -0.429%
9,CCCc1cc(=O)n2[nH]c(NCc3ccc(OC)c(OC)c3)nc2n1,inactive: 3.74%
10,Cc1nn(CC(=O)NCc2ccc(C(=O)O)cc2)c(C)c1[N+](=O)[O-],inactive: -21.7%
11,Fc1ccccc1-n1ncc2c1ncn1nc(-c3ccccc3Cl)nc21,inactive: 19.2%
12,COc1ccc(Cl)cc1S(=O)(=O)NC(C)C(=O)NCCN1CCOCC1 (stereo not given),inactive: 5.37%
13,CCOC(=O)Cn1c(=O)cc(C)c2ccccc21,inactive: 8.94%
14,Cc1cc(C)cc(NC(=O)N2C3CCCC2CC(NC(=O)C2CC2)C3)c1 (stereo not given),inactive: 4.91%
15,CCOC(=O)c1c(C(=O)OCC)c(C)n(CCc2ccc(OC)c(OC)c2)c1C,inactive: 9.28%
16,CSCCC(NC(=O)c1ccc(Cl)cc1Cl)C(=O)OCC(N)=O (stereo not given),inactive: 7.25%
17,O=C(Nc1cc(S(=O)(=O)N2CCOCC2)ccc1N1CCCC1)C1CC1,inactive: 8.87%
18,O=S(=O)(c1ccc2ncn(O)c2c1)N1CCOCC1,inactive: -17.8%
19,Cc1ccccc1NC(=O)/C(C#N)=C\c1cn(CC(=O)O)c2ccccc12,inactive: 3.74%
20,COc1ccc(NC(=O)COC(=O)Cc2ccsc2)c(OC)c1,inactive: -5.13%
21,CCOC(=O)/C=C1\SCC(=O)N1CC(=O)Nc1cc(S(=O)(=O)N(C)C)ccc1C,inactive: 2.2%
22,COCC(C)NCC(=O)NC(C)CCc1ccccc1 (stereo not given),inactive: -3.81%
23,CCCCN(C(=O)c1ccc(OC)c([N+](=O)[O-])c1)c1c(N)n(CCC)c(=O)[nH]c1=O,inactive: -13%
24,COc1c(F)c(F)c(C(=O)O)c(Nc2ccc(C)cc2C)c1F,inactive: 5.76%
25,CCN1CCN(CCOc2ccc(Cl)cc2)CC1,inactive: -3.35%
26,Clc1ccc2nc(NCc3ccccc3)c3nncn3c2c1,inactive: -2.18%
27,NC(Cc1ccc(C(F)(F)F)cc1)c1csc(Nc2ncccn2)n1 (stereo not given),inactive: 8.88%

row,Compound,growth rescue (activation)
1,COc1ccc(N2CC(C(=O)Nc3nc4ccc(S(C)(=O)=O)cc4s3)CC2=O)cc1 (stereo not given),inactive: -10.4%
2,COc1ccc(N2C(S)=C(C#N)C(=O)NC2c2ccc(OC)c(OC)c2)cc1 (stereo not given),inactive: 0.327%
3,OC(CNCCc1ccc(Cl)cc1Cl)COc1ccccc1 (stereo not given),inactive: 5.27%
4,Cc1nc(N2CCN(c3ccccn3)CC2)c2c(C)c(C(=O)Nc3ccccc3F)sc2n1,inactive: -3.5%
5,CCc1nc2c(OCc3ccc(Cl)cc3)cccn2c1N(C)C(=O)c1cccs1,inactive: 24.7%
6,CSc1ncccc1C(=O)NC1CCCCCCC1,inactive: -16.9%
7,CN(C)c1cc(NC(=O)CN2CCCC2)c2ccccc2n1,inactive: 4.36%
8,CCOc1ccc(-n2c(=O)c3sccc3n(CC(=O)NCC3CCCO3)c2=O)cc1 (stereo not given),inactive: -2.72%
9,COc1ccc(C(=O)Nc2cc(C)nn2-c2cccc(F)c2)cc1,inactive: 18.2%
10,COc1cc(NC(=O)c2cc(C)nc3ccccc23)cc(OC)c1,inactive: 6.96%
11,COc1ccc(CCn2c(C3CCCCC3)nc3c(c(=O)c4ccccc4n3C)c2=O)cc1OC,inactive: -50.1%
12,O=C(CCN1CCN(c2ccccc2)CC1)N/N=C/c1ccccc1OC(F)F,inactive: -6.52%
13,Cc1ccc(NC(=O)Cn2nnc(-c3nc(-c4ccncc4)no3)c2N)c(C)c1,inactive: -2.37%
14,CCOc1ccccc1N1CCN(S(=O)(=O)CC)CC1,inactive: -14%
15,COc1cc(C2CC(=O)c3c(ccc4ccccc34)N2)ccc1O (stereo not given),inactive: -5.67%
16,O=S(=O)(c1cccc2cccnc12)N1CCN(c2ccc(F)cc2)CC1,inactive: 9.54%
17,CCn1c(SCC(=O)N/N=C(/C)c2ccncc2)nc2ccccc21,inactive: 3.39%
18,CCCCN(C(=S)NC(=O)c1cc(OC)c(OC)c(OC)c1)c1c(N)n(Cc2ccccc2)c(=O)[nH]c1=O,inactive: -0.672%
19,CCOC(=O)c1c(NC(C)=O)c2c3c(sc2n1Cc1ccc(Cl)cc1)CCCC3,inactive: -9.21%
20,Cc1c(C(=O)OCC(=O)Nc2c(C)n(C)n(-c3ccccc3)c2=O)cccc1[N+](=O)[O-],inactive: 6.23%
21,O=C(Nc1cccc(C(F)(F)F)c1)c1ccc(-c2ccc(F)c(F)c2)c2ccoc12,inactive: -2.45%
22,O=C(c1ccco1)N(Cc1cccc([N+](=O)[O-])c1)c1ccc(Br)cc1,inactive: 28.3%
23,O=C(OCC(=O)N1CCOCC1)c1cc(-c2ccccc2)nc2ccccc12,inactive: -2.57%
24,CCCN(Cc1cc2cc(OC)ccc2[nH]c1=O)C(=O)c1ccco1,inactive: -31.3%
25,COc1cc2c(cc1OC)CN(C(=O)CN1C(=O)NC3(CCCCC3C)C1=O)CC2 (stereo not given),inactive: 9.85%
26,CC1CCN(c2c(NCC3CCC(C(=O)NCCCc4ccccc4)CC3)c(=O)c2=O)CC1 (stereo not given),inactive: -15.1%
27,O=C(CCCCCn1nnc2ccccc2c1=O)Nc1ccccc1F,inactive: 4.24%

row,Compound,growth rescue (activation)
1,NS(=O)(=O)c1ccc(CCNC(=O)CSc2ccc([N+](=O)[O-])cc2)cc1,inactive: -1.92%
2,CC(=O)c1cc(-c2ccccc2)n(CCC(=O)NC2CCCCCCC2)c1C,inactive: -67.6%
3,Cc1ccc(C(C)C)c(OCCCNCc2cccnc2)c1,inactive: 1.61%
4,O=C(O)CC(=O)NC12CC3CC(CC(C3)C1)C2,inactive: 13.6%
5,CCCc1nc2nc(C)c(NS(=O)(=O)c3ccc(F)cc3)c(=O)n2[nH]1,inactive: -13.3%
6,COc1ccc(NC(=O)C2(C)Cc3c(-c4cccc(C(N)=O)c4)ccnc3O2)cn1 (stereo not given),inactive: 6.26%
7,COc1ccc(NC(=O)Nc2c[nH]c(=O)[nH]c2=O)cc1,inactive: 10.2%
8,CC(C)NC(=O)C1(C)CCN1C(=O)C1(c2ccccc2)CCCC1 (stereo not given),inactive: 20.5%
9,COc1ccc(NC(=O)C(c2ccc(C)cc2)N(C)C(=O)c2ccc(=O)[nH]c2)cc1 (stereo not given),inactive: 21.4%
10,O=C(NC(c1ccccc1)c1cnccn1)C1CCN(Cc2ccc(Cl)c(Cl)c2)CC1 (stereo not given),inactive: -8.82%
11,CC(=O)N1N=C(c2ccc(NS(C)(=O)=O)cc2)CC1c1ccc2nccnc2c1 (stereo not given),inactive: -7.91%
12,NS(=O)(=O)c1ccc(NC(=O)CSc2ncccn2)cc1,inactive: -0.0304%
13,O=C(NCCc1ccccc1)C(c1ccccc1F)N(C(=O)c1csnn1)C1CC1 (stereo not given),inactive: -1.75%
14,COc1ccccc1C(C)NC(=O)c1ccc(S(=O)(=O)NCc2ccco2)cc1 (stereo not given),inactive: -10.4%
15,COc1ccccc1OCCCOc1ccc(C)cc1Br,inactive: 14.2%
16,CCn1c(SCC(=O)Nc2nncs2)nnc1-c1ccco1,inactive: 15.7%
17,CCOC(=O)c1sc(NC(=O)C2CC(=O)N(c3ccc(OCC)cc3)C2)nc1C (stereo not given),inactive: 6.12%
18,CCCC(=O)N1CCCC(c2cc(C(=O)NCc3ccccc3)no2)C1 (stereo not given),inactive: 14.9%
19,CCOCCCNC(=O)Cn1cnc2c(cnn2-c2ccc(OC)cc2)c1=O,inactive: -2.58%
20,COc1ccc(CC(=O)Nc2ccc(OC(C)=O)cc2C(=O)O)cc1,inactive: -0.865%
21,Cc1cc(=O)oc2cc(OCC(=O)OCC(=O)Nc3ccc(C(C)C)cc3)ccc12,inactive: 0.602%
22,CC1CCC(NC(=O)c2ccc3c(c2)N(Cc2ccccc2)C(=O)c2ccccc2S3(=O)=O)CC1 (stereo not given),inactive: 3.12%
23,Cc1ccc(-c2nc(CN(CC3CCC3)CC3CCCO3)c(C)o2)s1 (stereo not given),inactive: -1.16%
24,CCc1nc2c(OCc3c(C)noc3C)cccn2c1N(C=O)Cc1ccc(OC)cc1,inactive: 1.05%
25,CCOC(=O)CNc1nc2ccccc2n2c(C)nnc12,inactive: -1.04%
26,CCOC(=O)C1CCN(C(=O)CNC(=O)Cn2c(C)cc3ccccc3c2=O)CC1,inactive: -2.05%
27,CN(CC(=O)NCCc1ccc(S(N)(=O)=O)cc1)S(=O)(=O)c1ccc(Br)s1,inactive: -1.66%

row,Compound,growth rescue (activation)
1,CSc1ccccc1NC(=O)CSc1nnc(CNC(=O)c2ccccc2F)n1C,inactive: 4.25%
2,Cc1ccc(NC(=O)c2ccc(OC(=O)COc3ccc(Cl)c(C)c3)cc2)cc1,inactive: 10.3%
3,COc1ccc([N+](=O)[O-])cc1NC(=O)c1cccs1,inactive: -8.68%
4,O=C(Cc1cccs1)Nc1cccc(-c2nnc(-c3ccco3)o2)c1,inactive: -4.19%
5,CCOc1cc(N2CCOCC2)c(OCC)cc1NC(=O)COC(=O)c1ccc([N+](=O)[O-])o1,inactive: -48.7%
6,COc1cc2c(cc1OC)C(c1ccccc1C(F)(F)F)CC(=O)N2 (stereo not given),inactive: -6.11%
7,CCOc1ccccc1N1CC(C(=O)Nc2c(C)n(C)n(-c3ccccc3)c2=O)CC1=O (stereo not given),inactive: -2.82%
8,CCOC(=O)c1c(C)[nH]c(C(=O)COC(=O)C2=NNC(=O)CC2)c1C,inactive: 1.09%
9,COc1cccc(C(=O)Nc2ccc(NC(=O)c3ccco3)cn2)c1,inactive: 12.5%
10,O=C(CSc1ncn[nH]1)NN(c1ccccc1)c1ccccc1,inactive: -0.165%
11,OC[C@H]1O[C@@H](c2nc(-c3nc(-c4ccc(F)cc4)no3)cs2)[C@H](O)[C@@H]1O,inactive: 4.73%
12,O=C(NC(=S)NCC1CCCO1)c1ccc(Cl)cc1Cl (stereo not given),inactive: -2.07%
13,CN(C)c1ccc(C(=O)N2CCCC(N3CCN(Cc4ccc5c(c4)OCO5)CC3)C2)cc1 (stereo not given),inactive: -2.47%
14,COc1ccccc1/C=C/C(=O)NCC(=O)N/N=C/c1ccc(C(=O)O)cc1,inactive: -0.863%
15,COc1cccc(NC(=O)COC(=O)C2C3CC4OC(=O)C2C4C3)c1 (stereo not given),inactive: 6.44%
16,O=C(/C=C/c1ccco1)NCc1ccco1,inactive: 9.74%
17,COCC(C)n1c(C)cc(C(=O)COc2ccc(N(C)S(=O)(=O)c3ccc(NC(C)=O)cc3)cc2)c1C (stereo not given),inactive: -5.32%
18,Cc1onc(C(=O)Nc2cccnc2Cl)c1[N+](=O)[O-],inactive: 11%
19,O=C(CCN1CCOCC1)N/N=C/c1cc([N+](=O)[O-])ccc1OC(F)F,inactive: 14.5%
20,Cc1ccc(NC(=O)CSc2nc(N)cc(=O)[nH]2)cc1S(=O)(=O)N1CCCCCC1,inactive: -5.76%
21,S=C1NC2(CCCCCC2)N=C1c1ccccc1,inactive: 25%
22,O=C1CCCN1CC1CCN(Cc2nc(CC3CC3)no2)CC1,inactive: 12.8%
23,Cn1c(=O)c2cc(S(=O)(=O)Nc3cccc(F)c3)ccc2n(C)c1=O,inactive: 25.3%
24,CCc1ccccc1Nc1nc(N)nc(COC(=O)CCC(=O)c2ccc(F)cc2)n1,inactive: 13.5%
